# According to PubChem BioAssay AID485344 (National Center for Advancing Translational Sciences (NCATS), 2010):
# Values joined by “and” are separate entries in the source; they are usually repeats but may differ in a detail not shown here. Equal entries are not always repeated. About 6,900 (2%) of roughly 340,000 compounds were called active. No stated cut-off is given here; in the data, active means inhibition above about 30%; inactive means below that, where a call was filed. This is a selection; strong and weak results do not stand in their true shares. Entries without a call were filed so in the source.
# Biological target: D(2) dopamine receptor (Homo sapiens) (UniProt P14416)
# Assay: HTS Assay for Allosteric Antagonists of the Human D2 Dopamine Receptor: Primary Screen for Antagonists; further: 0% is about no effect
# Settings: HEK293 TREx D2 cells, calcium flux, dopamine EC80; at 10 µM; stronger effect = higher value
# Procedure, shortened: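 Compounds are added to dye-loaded, induced HEK293 T-REx cells coupled to calcium release via D2; after a 3 min kinetic read an EC80 dopamine stimulus is given and fluorescence is recorded for 3 more min.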
# Chain of UniProt P14416 (P14416 whole entry, looked up): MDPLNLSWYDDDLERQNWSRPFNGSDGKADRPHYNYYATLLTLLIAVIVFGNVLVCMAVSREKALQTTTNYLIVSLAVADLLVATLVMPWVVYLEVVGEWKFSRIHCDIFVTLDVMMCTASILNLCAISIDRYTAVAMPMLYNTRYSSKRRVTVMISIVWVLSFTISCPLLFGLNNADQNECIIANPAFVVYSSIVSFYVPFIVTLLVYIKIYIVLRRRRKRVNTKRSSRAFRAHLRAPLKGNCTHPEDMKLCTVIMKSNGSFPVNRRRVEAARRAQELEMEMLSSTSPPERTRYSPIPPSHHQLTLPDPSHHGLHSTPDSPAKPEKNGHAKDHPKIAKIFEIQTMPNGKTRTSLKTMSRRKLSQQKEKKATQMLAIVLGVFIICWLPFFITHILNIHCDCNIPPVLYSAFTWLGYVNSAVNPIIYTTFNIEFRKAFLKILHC
row,Structure (SMILES),inhibition
1,Cc1csc2nc(COC(=O)CNC(=O)c3ccccc3Cl)cc(=O)n12,11.1%
2,O=C(CN1CCCN(Cc2ccc(F)cc2)S1(=O)=O)NCc1ccccc1Cl,-7.15%
3,CN1CCN(CCCNC(=O)c2ccc3nc(Cc4ccccc4)oc3c2)CC1,6.68%
4,CCC12CN3CC(CC)(CN(C1)C3c1cc(Br)ccc1OC)C2=O (stereo not given),-7.14%
5,CCn1cc(C(=O)NCc2ccc(C)cc2)c(=O)c2cc(S(=O)(=O)N3CCc4ccccc4C3)ccc21,16%
6,Cc1nc(-c2ccc(S(=O)(=O)N3CCN(c4ccc(F)cc4)CC3)cc2)co1,-1.38%
7,CCOCCCNC(=O)C(=O)Nc1c2c(nn1-c1ccc(OC)cc1)CSC2,-19.5%
8,Cc1ccc2c(=O)c(C(=O)c3ccc(F)cc3)cn(CC(=O)NCCc3ccccc3)c2n1,0.342%
9,COc1ccc(S(=O)(=O)Nc2cc3c(cc2NCc2ccccc2)n(C)c(=O)n3C)cc1,10.7%
10,CCOc1ccc(C(=O)Nc2ccc3oc(-c4cccnc4)nc3c2)cc1,-7.37%
11,Cc1cc(C)cc(NC(=O)C2CCN(S(=O)(=O)c3ccc4[nH]c(=O)ccc4c3)CC2)c1,active: 31.2%
12,COc1ccc(CN(Cc2ccco2)c2cnc(S(C)(=O)=O)nc2C(=O)Nc2ccc(C)cc2C)cc1,-23.3%
13,Cc1cccc(OCCCn2c(CCNC(=O)C(C)(C)C)nc3ccccc32)c1,-5.11%
14,CCn1cc2nc(SCc3cc(C)ccc3C)n(Cc3ccc(OC)cc3)c(=O)c2n1,-8.74%
15,Cc1cccc(OCCSc2nc3ccc(NC(=O)COc4ccccc4)cc3s2)c1,18.4%
16,COc1cccc(S(=O)(=O)Nc2cccc(C(=O)N3CCOCC3)c2)c1,active: 36.1%
17,Cc1ccc(NC(=O)Nc2ccc3snnc3c2)cc1C,-2.08%
18,O=C(NCc1ccco1)c1ccc2c(c1)N(Cc1ccc(Cl)cc1)C(=O)c1ccccc1S2=O (stereo not given),3.28%
19,CCOC(=O)c1ccc(NC(=O)CC2C(=O)OCCN2CC)cc1 (stereo not given),active: 47.7% and -6.3%
20,CCN(C(=O)C1CCCN(S(=O)(=O)c2c(C)noc2/C=C/N(C)C)C1)c1cccc(C)c1 (stereo not given),-2.89%
21,CCc1ccc(CN(Cc2ccco2)c2cnc(S(C)(=O)=O)nc2C(=O)Nc2ccccc2Cl)cc1,25.1%
22,COC(=O)c1scc(-c2ccc(C)cc2)c1S(=O)(=O)N1CCN(c2cccc(OC)c2)CC1,13.7%
23,Cc1ccc(Sc2c(C)nn(C(C)(C)C)c2OC(=O)C(C)(C)C)cc1,5.24%
24,CCc1nnc(SC(CC)C(=O)Nc2cccc(OC)c2)c2cc3oc(C)cc3n12 (stereo not given),17.9%

row,Structure (SMILES),inhibition
1,Cc1ccc(CNC(=O)CC(C)S(=O)(=O)c2cc3c(cc2C)NC(=O)CO3)cc1 (stereo not given),0.351%
2,CSC1=NC2(CCN(C(=O)NC3CCCCC3)CC2)N=C1c1ccc(C)c(C)c1,-3.07%
3,Cc1ccc(NC(=O)CCc2nnc3n(C)c(=O)c4sccc4n23)cc1C,9.74%
4,CC(C)Oc1ccc(C(=O)N(Cc2ccco2)c2ccccn2)cc1,-10.5%
5,Cc1ccc(C)c(NC(=O)CN2C(=O)C(C)(C)c3ccccc32)c1,-1.6%
6,COc1ccc(Br)cc1CNC(=O)c1cc2n(n1)CCCN(Cc1ccc(C)cc1)C2=O,-8.37%
7,O=C(Nc1sc2c(c1C(=O)NCc1ccco1)CCCC2)c1cc(=O)c2ccccc2o1,-8.31%
8,COc1ccccc1C1CCN(Cc2ccc3ccccc3c2)CC1,active: 85.1%
9,Cc1nc(Oc2ccc(F)cc2Cl)c2oc3ccccc3c2n1,18.2%
10,CCC(=O)N1CCc2cc(Br)cc(S(=O)(=O)CCC(=O)NCc3ccc(Cl)cc3)c21,3.31%
11,CCOc1ccccc1NC(=O)CN(C)S(=O)(=O)c1ccc2nc(C)sc2c1,7.53%
12,COc1cc(C(=O)NCC(c2cccs2)S(=O)(=O)c2ccc(F)cc2)cc(OC)c1OC (stereo not given),-24.3%
13,CCOC(=O)c1c(C)[nH]c(CCC(=O)Nc2ccc(C)c(F)c2)c1C,-7.91%
14,COc1cc2cc(CNc3ccc(C)cc3)c(=O)n(CC(=O)Nc3ccc(F)cc3F)c2cc1OC,-2.79%
15,Cc1ccccc1-c1noc(-c2ccc(O)cc2)n1,active: 45.9%
16,Cc1cccc(OCC(=O)Nc2ccc(Cl)c(-c3nc4ncccc4o3)c2)c1C,11%
17,Cc1cccc(NC(=O)c2nnn(CC(=O)Nc3ccc(C(C)C)cc3)c2N)c1C,8.97%
18,COc1ccc(-c2cc(C(=O)OC(C)C(=O)c3ccccc3)c3cccc(Cl)c3n2)cc1 (stereo not given),2.24%
19,c1ccc(Nc2c(-c3c[nH]c4ccccc34)nc3ccccn23)cc1,17.9%
20,Cc1ccc(C2c3[nH]c4ccccc4c3CCN2C(=O)c2cccc(C)c2)cc1 (stereo not given),14.2%
21,CC(C)Nc1ccc(-c2nc(-c3ccco3)no2)cc1[N+](=O)[O-],8.69%
22,CCC(C)NC(=O)c1ccccc1NC(=O)CN1C(=O)c2cccc3cccc1c23 (stereo not given),4.22%
23,CCOCCCNC(=O)C(c1ccc(C)cc1)N(Cc1ccc2c(c1)OCO2)C(=O)c1ccc(NC(C)=O)cc1 (stereo not given),-2.89%
24,Cc1ccc2nc(N3CCC(C(=O)N4CCN(c5cccc(Cl)c5)CC4)CC3)[nH]c2c1,11.7%

row,Structure (SMILES),inhibition
1,COc1ccc(-c2noc(CC(=O)Nc3ccc(F)cc3F)n2)cc1,-6.01%
2,Cc1ccc(-c2nnc(Nc3cccc(O)c3)c3ccccc23)cc1S(=O)(=O)N1CCOCC1,12.4%
3,CON(C)S(=O)(=O)c1cccc(C(=O)Nc2ccc(S(=O)(=O)NC3=NCCCCC3)cc2)c1,active: 32.7%
4,CCc1ccc(NC(=O)CCn2nc(-c3ccccc3OC)c3c(C)cc(C)nc32)cc1,27.1%
5,COc1ccccc1OC(C)C(=O)Nc1ccc(-c2nc3ccccc3s2)cc1 (stereo not given),-9.34%
6,CCC(C(=O)NCc1ccccc1)n1nc(C)c2sc3ccccc3c2c1=O (stereo not given),9.15%
7,COc1ccc(NC(=O)CCn2c(=O)c3cccn3c3cccnc32)c(OC)c1,1.5%
8,CN(Cc1ccccc1)C(=O)Nc1ccc2c(c1)N(C)C(=O)c1ccccc1S2,18.6%
9,Cc1ccc(-n2ncc(C(=O)NCc3cccs3)c2C2CCN(C(=O)OC(C)(C)C)CC2)c(C)c1,16.3%
10,COc1ccc(NC(=O)C2=C(C)Nc3nc(SCc4ccccc4C)nn3C2c2cc(OC)c(O)c(OC)c2)cc1 (stereo not given),10.4%
11,Cc1noc(C)c1S(=O)(=O)NCCN1CCN(c2ccccc2)CC1,active: 32.6%
12,Brc1ccccc1-c1nnc(COc2cccc3cccnc23)o1,active: 38.3%
13,Cc1ccc(CSc2nnc(CCNC(=O)OC(C)(C)C)o2)cc1,7.99%
14,COc1ccc(OC)c(NC(=O)CSc2nnc3ccc4ccccc4n23)c1,1.84%
15,O=C(NCc1ccccc1Cl)c1ccc(CSCc2ccccc2Cl)o1,18.7%
16,Fc1ccccc1N1CCN(C2CCCN(Cc3cccc(C(F)(F)F)c3)C2)CC1 (stereo not given),active: 55.4%
17,CCN(CC)CCCNC(=O)c1ccc2c(=O)n(CCc3ccccc3)c(=O)[nH]c2c1,0.0041%
18,O=C(c1ccc(F)cc1)N(NC(=O)C(O)(c1ccccc1)c1ccccc1)c1ccccc1,active: 39.7%
19,CCc1ccc(-n2cnc3cc(C(=O)NCc4ccc(C)cc4)ccc32)cc1,16.1%
20,CCOc1ccc(C(=O)Nc2ccc3nc(SCCOc4ccccc4)sc3c2)cc1,-6.75%
21,CCOC(=O)c1c(C)[nH]c(CCC(=O)NCc2ccc(CC)cc2)c1C,-11.9%
22,CC(=O)c1cccc(NC(=O)Cn2nc(C)n3cccc3c2=O)c1,-8.92%
23,O=C(CSc1nnc(-c2ccccc2)o1)c1cccc([N+](=O)[O-])c1,-22.1%
24,CCN(CC)CCCNC(=O)c1ccc(-c2nc(CN3CCc4ccccc43)c(C)o2)cc1,-8.24%

row,Structure (SMILES),inhibition
1,COC(=O)c1cc(S(=O)(=O)N2CCN(c3cccc(C)c3)C(C)C2)cn1C (stereo not given),5.76%
2,O=C(Cn1ncc2c3ccccc3n(Cc3ccc(Cl)cc3)c2c1=O)NCc1ccccn1,6.7%
3,O=C(CSc1nnc(-c2cccs2)o1)Oc1ccccc1,-0.371%
4,COc1ccc(N2CCN(C(=O)CCn3nc(C)c(S(=O)(=O)N4CCCC4)c3C)CC2)cc1,-3.42%
5,O=C(NCc1cccnc1)c1ccc(COc2ccccc2Br)cc1,active: 52.9%
6,CC(=O)N1CCCc2cc(S(=O)(=O)N3CCC(C(=O)Nc4cccc(Cl)c4C)CC3)ccc21,-2.3%
7,CCN(CC)C(=O)c1c(-c2ccccc2)c(-c2ccccc2)nn(C)c1=O,21.6%
8,CCc1ccc(C(=O)c2cn(CC(=O)Nc3cc(C)ccc3C)c3nc(C)ccc3c2=O)cc1,-1.42%
9,Cc1ccc(N2CCN(C(=O)c3c(C)oc4ncn(CC(C)C)c(=O)c34)CC2)c(C)c1,-9.42%
10,Cc1ccc(C)c(N2CCN(C(=O)C3CCN(c4nc5ccc(C)cc5[nH]4)CC3)CC2)c1,-21.1%
11,CCC(C)NC(=O)c1cc(-c2cccc(OC)c2)on1 (stereo not given),16.7%
12,Cc1cccc(CCNC(=O)c2ccc3c(c2)N(Cc2ccccc2F)C(=O)c2ccccc2S3)c1,7.31%
13,Cc1cc(-c2ccc(C)c(S(=O)(=O)N3CCN(c4cccc(C(F)(F)F)c4)CC3)c2)on1,-4.25%
14,CN(C)c1ccc(-c2nc(-c3cc4cc(Cl)ccc4oc3=O)cs2)cc1,-17.5%
15,CCc1cccc(NC(=O)CCC(=O)N2CCSc3ccccc32)c1,-10.2%
16,Cc1ccc(Oc2c(C(F)(F)F)oc3c(CN4CCC(C)CC4)c(O)ccc3c2=O)cc1,9.53%
17,O=C(Nc1ccc(S(=O)(=O)Nc2ccccn2)cc1)c1cccc([N+](=O)[O-])c1,active: 38.8%
18,COc1cc(NC(=O)Cn2c(=O)n(Cc3ccco3)c(=O)c3sc4ccccc4c32)cc(OC)c1,-5.09%
19,COc1ccc(S(=O)(=O)NCC2CCC(C(=O)NCCCN3CCCC3=O)CC2)cc1 (stereo not given),active: 31.9%
20,COCCCNc1oc(/C=C/c2cc(OC)c(OC)c(OC)c2)nc1C#N,15.6%
21,Cc1nc2scc(C)n2c(=O)c1S(=O)(=O)Nc1ccc(N2CCOCC2)c(Cl)c1,3.19%
22,CCC(C(=O)Nc1cc(OC)cc(OC)c1)n1nc(-c2ccc(C)c(C)c2)ccc1=O (stereo not given),-9.92%
23,CCOc1ccc(C(=O)NCCn2cc(SCC(=O)Nc3ccc4c(c3)OCCO4)c3ccccc32)cc1,-3.41%
